For one series, the system named is hRBCs. The series is described as follows: Hemagglutination of washed human red blood cells. The format is cell-based. The settings on record: for HA hRBC: hemagglutination, chimeric (xi) mAbs, Table 1. How it is done: Hemagglutination of hRBCs was assessed following incubation of hRBCs with various concentrations of chimeric and humanized VLX4, VLX8, and VLX9 mAbs in vitro essentially as described by Kikuchi et al. Biochem Biophys Res. Commun (2004) 315:912-918. Blood was obtained from healthy donors, diluted (1:50) in PBS/1 mM EDTA/BSA and washed 3 times with PBS/EDTA/BSA. hRBCs were added to U-bottomed 96 well plates with equal volumes of the antibodies (75 μl of each) and incubated for 3 hrs at 37° C. and overnight at 4° C.

Series [1] concerns Jurkat cells. The series is described as follows: Cell death by soluble mAb, annexin V / 7-AAD. The format is cell-based, human. The settings on record: 1 μg/ml, 24 hrs. On the procedure:
Induction of cell death by soluble anti-CD47 mAbs is measured in vitro (Manna et al. (2003) J. Immunol. 107 (7): 3544-53, Kikuchi et al. Biochem Biophys Res. Commun. 315: 912-8, 2004), Pettersen et al. J. Immuno. 162: 7031-7040, 1999), Manna et al. Cancer Research, 64: 1026-1036, 2004). For the in vitro cell death assay, 1×10^5 transformed human T cells (Jurkat cells) were incubated with soluble humanized VLX4, VLX8, and VLX9 CD47 mAbs (1 μg/ml) for 24 hrs at 37° C. As cell death occurs, mitochondrial membrane potential is decreased, the inner leaflet of the cell membrane is inverted, exposing phosphatidylserines (PS), and propidium iodide (PI) or 7-aminoactinomycin D (7-AAD) is able to incorporate into nuclear DNA. In order to detect these cellular changes, cells were then stained with fluorescently labelled annexin V and PI or 7-aminoactinomycin D (7-AAD) (BD Biosciences) and the signal detected using an Accuri C6 flow cytometer (BD Biosciences). The increase in PS exposure is determined by measuring the percent increase in annexin V signal and the percent of dead cells by measuring the percent increase in PI or 7-AAD signal. Annexin V positive (annexin V^+) or annexin V positive/7-AAD negative (annexin V^+/7-AAD^−) cells are observed in early stages of cell death and annexin V positive/7-AAD positive (annexin V^+/7-AAD^+) cells are dead cells. […]

The test system of series [2] is Jurkat cells. Description: Phagocytosis of tumor cells by human macrophages. The format is cell-based. The settings on record: 1 μg/ml mAb. On the procedure: Human derived macrophages were derived from leukapheresis of healthy human peripheral blood and incubated in AIM-V media (Life Technologies) for 7-10 days. For the in vitro phagocytosis assay, macrophages were re-plated at a concentration of 1×10^4 cells per well in 100 ul of AIM-V media in a 96-well plate and allowed to adhere for 24 hrs. Once the effector macrophages adhered to the culture dish, the target human cancer cells (Jurkat) were labelled with 1 μM 5(6)-Carboxyfluorescein diacetate N-succinimidyl ester (CFSE; Sigma Aldrich) and added to the macrophage cultures at a concentration of 5×10^4 cells in […] of AIM-V media (5:1 target to effector ratio). VLX4, VLX8, and VLX9 CD47 mAbs (1 μg/ml) were added immediately upon mixture of target and effector cells and allowed to incubate at 37° C. for 2-3 hours. After 2-3 hrs, all non-phagocytosed cells were removed and the remaining cells washed three times with phosphate buffered saline (PBS; Sigma Aldrich). Cells were then trypsinized, collected into microcentrifuge tubes, and incubated in 100 ng of allophycocyanin (APC) labelled CD14 antibodies (BD Biosciences) for 30 minutes, washed once, and analyzed by flow cytometry (Accuri C6; BD Biosciences) for the percentage of CD14^+ cells that were also CFSE^+ indicating complete phagocytosis.

The target in another series is T1, human CD47 (Homo sapiens, UniProt Q08722).
T1 construct: expressed in transfected cells; host or cells: OV10 human ovarian cancer cells
Description: Binding to OV10 hCD47 cells, cell-based ELISA. The settings on record: apparent Kd; chimeric (xi) mAbs, Table 1. How it is done:
(§1) The binding of chimeric (murine-human) and humanized antibodies of the present disclosure was determined by ELISA using OV10 cells transfected with human CD47 (OV10 hCD47) or using freshly isolated human red blood cells (hRBCs), which display CD47 on their surface (Kamel et al. (2010) Blood. Transfus. 8(4):260-266).
Binding activities of VLX4, VLX8, and VLX9 chimeric (xi) and humanized mAbs were determined using a cell-based ELISA assay with human OV10 hCD47cells expressing cell surface human CD47. OV10 hCD47 cells were grown in IMDM medium containing 10% heat inactivated fetal bovine serum (BioWest; S01520). One day before assay, 3×10^4 cells were plated in 96 well cell bind plates (Corning #3300, VWR #66025-626) and were 95-100% confluent at the time of assay. Cells were washed, various concentrations of purified antibodies added in IMDM and incubated at 37° C. for 1 hr in 95% O2/5% CO2. Cells were then washed with media and incubated for an additional hour at 37° C. with HRP labelled secondary anti-human antibody (Promega) diluted 1/2500 in media. […] Reactions were terminated by the addition of HCl to 0.7N, and absorbance at 450 nm determined using a Tecan model Infinite M200 plate reader. The apparent binding affinities of these clones to human OV10 hCD47 cells was determined by non-linear fit (Prism GraphPad software).

For a further series, the target named is T2, human CD47 on hRBCs (Homo sapiens, UniProt Q08722).
T2 construct: freshly isolated human red blood cells (hRBCs), which display CD47 on their surface; from tissue; host or cells: human blood, washed red blood cells
The series is described as follows: Binding to freshly isolated human red blood cells, flow cytometry. The conditions noted are these: apparent Kd; chimeric (xi) mAbs, Table 1; read-out: Kd (pM) hRBC. On the procedure: as §1
Binding activities of chimeric and humanized VLX4, VLX8, and VLX9 mAbs to human CD47 on hRBCs were also determined using flow cytometry.

B1: VLX8 IgG1 N297Q (xi): chimeric VLX8 anti-CD47 mAb, human IgG1 N297Q (antibody)
heavy: EVQLQQSGPELMKPGASVKISCKASGYSFTNYYIHWVNQSHGKSLEWIGYIDPLNGDTTYNQKFKGKATLTVDKSSSTAYMRLSSLTSADSAVYYCARGGKRAMDYWGQGTSVTVSS[human IgG1 constant region with changes not given here]
light: DIQMTQTTSSLSASLGDRVTISCRASQDISNYLNWYQQKPDGTVKLLIYYTSRLYSGVPSRFSGSGSGTDYSLTISNLEQEDIATYFCQQGNTLPWTFGGGTKLEIKRTVAAPSVFIFPPSDEQLKSGTASVVCLLNNFYPREAKVQWKVDNALQSGNSQESVTEQDSKDSTYSLSSTLTLSKADYEKHKVYACEVTHQGLSSPVTKSFNRGEC
As for B1, the “HA hRBC” value with hRBCs is reported as “Yes”. Moreover, the “PS exposure and cell death of Jurkat cells (annexin V^+, annexin V^+/7-AAD^−, annexin V^+/7-AAD^+)” value in the series with Jurkat cells [1] is “induced increased PS exposure and cell death”. Besides, the “phagocytosis of Jurkat cells by human macrophages” value (“phagocytosis of Jurkat cells” for short) in the series on Jurkat cells [2] was “increase phagocytosis”.

B2: VLX8 IgG4 PE (xi): chimeric VLX8 anti-CD47 mAb, human IgG4 PE (antibody)
heavy: EVQLQQSGPELMKPGASVKISCKASGYSFTNYYIHWVNQSHGKSLEWIGYIDPLNGDTTYNQKFKGKATLTVDKSSSTAYMRLSSLTSADSAVYYCARGGKRAMDYWGQGTSVTVSSASTKGPSVFPLAPCSRSTSESTAALGCLVKDYFPEPVTVSWNSGALTSGVHTFPAVLQSSGLYSLSSVVTVPSSSLGTKTYTCNVDHKPSNTKVDKRV[human IgG4 Fc with changes not given here]
light: DIQMTQTTSSLSASLGDRVTISCRASQDISNYLNWYQQKPDGTVKLLIYYTSRLYSGVPSRFSGSGSGTDYSLTISNLEQEDIATYFCQQGNTLPWTFGGGTKLEIKRTVAAPSVFIFPPSDEQLKSGTASVVCLLNNFYPREAKVQWKVDNALQSGNSQESVTEQDSKDSTYSLSSTLTLSKADYEKHKVYACEVTHQGLSSPVTKSFNRGEC
Take B2: the “HA hRBC” value in the series on hRBCs is recorded as “Yes”. Further, in the series with hRBCs (result in words, mAb concentrations from 50 μg/ml down), the “visible hemagglutination of hRBCs” value was “caused visible hemagglutination”. In addition, the “PS exposure and cell death of Jurkat cells (annexin V^+, annexin V^+/7-AAD^−, annexin V^+/7-AAD^+)” value in the series on Jurkat cells [1] is “induced increased PS exposure and cell death”. In addition, the “phagocytosis of Jurkat cells” value in the series with Jurkat cells [2] is “increased phagocytosis”.

B3: VLX4 IgG4 S228P (xi): chimeric VLX4 anti-CD47 mAb, human IgG4 S228P (antibody)
heavy: EVQLQQSGPELVKPGASVKMSCKASGYTFTNYVIHWVKRRPGQGLEWIGYIYPYNDGILYNEKFKGKATVTSDKSSSTAYMDLSSLTSEDSAVYYCTRGGYYVPDYWGQGTTLTVSSASTKGPSVFPLAPCSRSTSESTAALGCLVKDYFPEPVTVSWNSGALTSGVHTFPAVLQSSGLYSLSSVVTVPSSSLGTKTYTCNVDHKPSNTKVDKRV[human IgG4 Fc with S228P (EU numbers) not given here]
light: DVLMTQTPLSLPVNLGDQASISCRSRQSIVHTNGNTYLGWFLQKPGQSPKLLIYKVSNRFSGVPDRFSGSGSGTDFTLTISRVEAEDLGVYYCFQGSHVPYTFGGGTKLEIKRTVAAPSVFIFPPSDEQLKSGTASVVCLLNNFYPREAKVQWKVDNALQSGNSQESVTEQDSKDSTYSLSSTLTLSKADYEKHKVYACEVTHQGLSSPVTKSFNRGEC
As to B3, the Kd in the series with human CD47 was determined as 214 pM; in the series with human CD47 on hRBCs, 99 pM. Moreover, the “HA hRBC” value with hRBCs is reported as “No”. The “phagocytosis of Jurkat cells” value in the series on Jurkat cells [2] is on record as “increased phagocytosis”.

The values above are taken from US20220313819A1, “COMBINATION THERAPY FOR THE TREATMENT OF SOLID AND HEMATOLOGICAL CANCERS” (Arch Oncology, Inc., priority 2019, published 2022).
